The whole screen tested about 52,000 compounds, of which about 4,300 (8.3%) were called active. Rule as the data show it: active = survival mostly below about 52% (no sharp cut-off); inactive = mostly above about 56%. The list shows a part of the results.

The subject of this assay is DeltatarO mutant. The assay can be described thus: S. aureus survival, RN4220 and DeltatarO strains – OD600, teichoic acid synthesis inhibitors, primary screen (AID 463173). The note with it: S. aureus RN4220 wild type/DeltatarO growth, OD600, 18 h, hits give low values, screened at 18.75 µg/mL (by protocol).
For `COc1cccc(CN(CCO)Cc2ccccc2)c1OC`, the survival was inactive: 91%. Then `Cc1ccc(S(=O)(=O)CCSc2nc(C)cc(C)c2C#N)cc1`, with inactive: 53%. Turning to `COc1cc(NC(=O)c2cnn(-c3cccc(F)c3)c2C2CCNCC2)cc(OC)c1OC`, the survival was inactive: 102%. Turning to `CCOC(=O)c1cc2c(ccn2-c2ccc(F)cc2)n1CC(=O)N1CCc2ccccc21`, the survival is inactive: 100%.

In the case of `Cc1cc(C)nc(SC2CCCCC2=O)n1` (stereo not given), the survival is inactive: 104%. Take `CCc1nnc(NC(=O)CSCc2cc(=O)c3ccc(C)cc3[nH]2)s1`: the survival was inactive: 98%. For the molecule `O=C(C1=C(O)C(=O)N(CCN2CCOCC2)C1c1ccccc1)c1ccco1` (stereo not given), the survival is inactive: 102%. Then `Cc1cc(O)c(C(c2ccccc2Cl)N2CCN(c3ccccc3)CC2)c(=O)n1Cc1ccco1` (stereo not given), with inactive: 85%. Under `O=C(CN(C1CCCCC1)S(=O)(=O)c1ccccc1)NCc1ccco1` stands inactive: 99%; under `Cc1ccc2nc(N(Cc3cccnc3)C(=O)C3COc4ccccc4O3)sc2c1` (stereo not given), inactive: 94%; under `CCc1ccc(CN(C(=O)c2cc3ccccc3oc2=O)C2CCS(=O)(=O)C2)cc1` (stereo not given), inactive: 66%. Take `Cc1ccc(CSc2cn(CC(=O)N3CCCCC3)c3ccccc23)cc1`: the survival is inactive: 73%.

As for `CC(=O)c1ccc(NC(=O)c2ncn(-c3ccccc3)n2)cc1`, the survival is active: 34%. Turning to `COc1ccc(Cl)cc1NC(=O)CCC(=O)c1ccc(C)cc1`, the survival was inactive: 79%. Under `COc1ccc(CNC(=O)COCc2cc(-c3cccs3)on2)cc1OC` stands inactive: 99%. Turning to `CCCCNC(=O)CCCn1c(=O)c2ccccc2n(Cc2ccccc2C)c1=O`, the survival was inactive: 82%. With `CCc1c(C)sc2c1CCN(Cc1ccc(F)cc1)C2c1ccccc1` (stereo not given), the survival is inactive: 81%.

Take `CC(C)(C)NC(=O)COc1ccc(CNc2ccc3c(c2)OCCO3)cc1`: the survival is inactive: 87%.

Regarding `CCN(CC)CCNC(=O)Cn1ncc2c([nH]c3ccccc32)c1=O`, the survival is inactive: 89%. In the case of `CCCCN(CC)CCCNC(=O)c1cc2c(-c3ccc(OC)c(OC)c3)nn(C)c2s1`, the survival was inactive: 140%. For the molecule `COCCNC(=O)C1CCCN(S(=O)(=O)c2ccc3c(ccn3C)c2)C1` (stereo not given), the survival was inactive: 55%. Then `O=C(NCc1ccc(F)cc1)c1ccc(NC(=O)N2CC3CCCN3c3ccccc32)cc1` (stereo not given), with inactive: 113%.

Turning to `CCOc1ccc(-c2cnc(NCc3ccc(OC)cc3OC)n2C)cc1`, the survival was active: 37%. Turning to `Cc1ccc(NC(=O)c2cccn2-c2nnc(N3CCCCC3)s2)cc1Cl`, the survival was inactive: 69%.

Turning to `Cn1nc(C(=O)N2CCN(c3ccccc3F)CC2)c2c1-c1ccccc1SC2`, the survival is active: 32%. Under `CN(C)CCCNc1oc(/C=C/c2ccc(F)cc2)nc1C#N` stands inactive: 89%; under `Cc1ccc(NC(=O)CCCn2c(=O)c3cccn3c3cccnc32)c(Cl)c1`, inactive: 95%. Under `O=c1oc2c3c(ccc2c2ccccc12)OCN(Cc1cccc(Cl)c1)C3` stands inactive: 64%. Regarding `Cc1c(CCNC(=O)Cc2ccccc2)sc2nc(-c3ccc(F)cc3)nn12`, the survival is inactive: 84%. Then `CCOc1ccccc1N(C)C(=O)C1CCCN(c2ncnc3onc(-c4ccc(F)cc4)c23)C1` (stereo not given), with inactive: 74%; and `Cc1cc(C)c(NC(=O)CSc2nccn2Cc2ccco2)c(C)c1`, with inactive: 76%; and `O=C(CN1CCN(Cc2ccc(Cl)cc2)C1=O)NCc1ccc(F)cc1`, with inactive: 128%. Under `CCn1cc(C(=O)NCCc2ccccc2)c(=O)c2cc(S(=O)(=O)N(C)C3CCCCC3)ccc21` stands inactive: 79%. Under `COc1ccc(-c2noc(-c3ccc(NCc4ccccc4OC)c([N+](=O)[O-])c3)n2)cc1` stands inactive: 57%; under `Cc1ccc(C2=Nc3ccccc3N(CC(=O)Nc3cccc(F)c3)C(=O)C2)cc1C`, inactive: 79%. Consider `CC(=O)c1[nH]c(C)c(C(=O)NCCc2ccc(C)cc2)c1C`, for which the survival was inactive: 52%. Under `CC(=O)Nc1cccc(C(=O)NCc2ccc3c(c2)CCN3C(C)=O)c1` stands inactive: 84%. For `CCOc1ccc(NC(=O)C2CCC(N3C(=O)C4CC=CCC4C3=O)CC2)cc1` (stereo not given), the survival was inactive: 77%. Regarding `Cc1cc(C)c(NC(=O)CCn2c(=O)c3cccn3c3ccccc32)c(C)c1`, the survival was inactive: 49%. Under `CCN1CCN(C(c2ccc(SC)cc2)c2c(O)cc(C)n(Cc3ccco3)c2=O)CC1` (stereo not given) stands inactive: 99%; under `COc1ccccc1NC(=O)C1CCN(S(=O)(=O)c2ccc3[nH]c4c(c3c2)CCCCC4)CC1`, inactive: 99%. Then `Cc1nn(-c2ccccc2)c2c1cc1c(=O)n(C)c(=O)nc-1n2-c1cccc(Cl)c1`, with inactive: 79%.

`Oc1ccc(-c2nc(-c3ccccc3)c(-c3ccc(Br)cc3)[nH]2)cc1`: the survival was active: -4%. As for `COc1ccc(-c2cc(=O)c3cc(OCC(=O)OC(C)C)ccc3o2)cc1`, the survival was inactive: 124%. `COCCCNC(=O)CSc1nc2cc3c(cc2c(=O)n1CCCCCC(=O)NCc1ccc2c(c1)OCO2)OCO3`: the survival is inactive: 79%. Under `Cc1ccccc1-c1nnc(N(C(=O)C2CC2)C2CCCC2)s1` stands inactive: 112%. Regarding `CCCCNC(=O)C1CCC(CNS(=O)(=O)c2ccc(C)cc2)CC1` (stereo not given), the survival is inactive: 91%. Then `Cc1nc(NC(=O)c2c(-c3ccccc3)c(-c3ccccc3)nn(C)c2=O)sc1C`, with inactive: 48%; and `COc1ccc(CNC(=O)CN2C(=O)COc3ccc(S(=O)(=O)N4CCC(C)CC4)cc32)cc1`, with inactive: 86%. As to `Cc1ccc(NC(=O)Cn2c(=O)n(CCCCC(=O)NCCc3ccc(Cl)cc3)c(=O)c3ccccc32)cc1`, the survival is inactive: 100%. With `O=C(CSC1=NCCS1)Nc1ccnc2ccccc12`, the survival is inactive: 86%. As to `COCCCN1C(=O)c2[nH]nc(-c3ccccc3O)c2C1c1ccc(OCc2ccccc2)cc1` (stereo not given), the survival is active: 8%. `COc1cc(NC(=O)CCS(=O)(=O)c2nc(-c3ccc4c(c3)OCO4)cc(C(F)(F)F)n2)cc(OC)c1OC`: the survival is inactive: 81%. Under `COc1ccc2[nH]cc(NC(=O)NCc3ccncc3)c(=O)c2c1` stands inactive: 101%; under `Cc1cccc(N2CCN(C(=O)CN3C(=O)COc4ccc(S(=O)(=O)N5CCOCC5)cc43)CC2)c1C`, inactive: 87%.

Turning to `CCC1CCCCN1C(=O)CSc1nc(-c2ccc(OC)c(OC)c2)cc(C(F)(F)F)n1` (stereo not given), the survival is active: -3%. Then `O=C1c2ccccc2C(=O)C1(O)N1CCOCC1`, with inactive: 85%; and `CC1=C(C(=O)OC2CCCCCC2)C(c2cccc(F)c2F)CC(=O)N1` (stereo not given), with inactive: 128%.

For `Cc1cccc(NC(=O)c2sc3nc4c(cc3c2N)CN(C(C)C)CC4)c1`, the survival is inactive: 80%.

Consider `CCc1ccc(S(=O)(=O)Nc2ccc3[nH]c(=O)sc3c2)cc1`, for which the survival was inactive: 75%. For `CCOc1ccc2nc(N3CCCC(C(=O)Nc4ccc(OC)c(Cl)c4)C3)sc2c1` (stereo not given), the survival is inactive: 93%. Under `CN(C)S(=O)(=O)c1ccc2c(c1)N(CC(=O)Nc1ccc(F)cc1)C(=O)CS2` stands inactive: 69%. `NC(=O)C1CCN(C(=O)CN2CCc3ccccc3C2)CC1`: the survival was inactive: 95%. Then `COc1cc(NC(=O)CCCc2nnc3n(CC(C)C)c(=O)c4sccc4n23)cc(OC)c1`, with inactive: 100%; and `CCOC(=O)c1cc2c(=O)n3ccccc3nc2n(Cc2ccco2)c1=NC(=O)c1cccc(F)c1`, with active: 17%; and `Fc1ccc(Nc2nc(SCc3ccccc3F)nc3ccccc23)cc1`, with inactive: 55%.

Regarding `Cc1ccc(Cn2c(SCC(=O)NCc3ccccc3Cl)nc3ccsc3c2=O)cc1`, the survival was active: -5%. Consider `Cc1cc([N+](=O)[O-])ccc1NC(c1nnc(-c2ccccc2)o1)c1ccccc1F` (stereo not given), for which the survival was inactive: 82%.

For `CC(=O)N1CCc2cc(Br)cc(S(=O)(=O)CCC(=O)N3CCN(c4ccccc4)CC3)c21`, the survival is active: 53%. Under `Cc1nc2cc(C(=O)NC3CCCCCC3)ccc2n1-c1ccc(Br)cc1` stands inactive: 55%; under `CC(C)N(C(=O)CSc1nnc(Cc2csc(Nc3ccccc3)n2)o1)C(C)C`, inactive: 69%; under `O=C(CSc1nnc(-c2ccncc2)n1Cc1ccco1)OC1CCCCC1`, inactive: 89%. As to `CN(C)c1ccc(CNC(=O)c2ccc(NC(=O)N3CCCCc4ccccc43)cc2)cc1`, the survival is inactive: 135%. On to `N#Cc1c(-n2ncnc2-c2cccc(Br)c2)sc2c1CCCCC2`, for which the survival is active: 23%. As to `COc1ccc(-n2c(SCC(=O)Nc3cccc(C)c3C)nc3c([nH]c4ccccc43)c2=O)cc1`, the survival was inactive: 101%. With `Cc1ccc2oc(=O)c3cc(C(=O)N4CCN(c5ccccc5F)CC4)sc3c2c1`, the survival was inactive: 62%. Then `CC(C)(C)c1ccc(Oc2ccc(NC(=O)CCC(=O)OCC(=O)c3ccccc3)cc2)cc1`, with inactive: 72%.

`CCOc1ccc(CCNC(=O)CN2C(=O)COc3ccc(S(=O)(=O)N4CCCCCC4)cc32)cc1`: the survival is inactive: 57%. Under `CC(=O)c1cccc(NC(=O)Cn2c(=O)oc3cc(S(=O)(=O)N4CCCC4)ccc32)c1` stands inactive: 138%; under `CCC(=O)C1=C(c2ccc(OC)c(OC)c2)N(C(=O)CC)n2c(CC)nnc2S1`, inactive: 81%; under `Cc1ccc(NC(=O)c2c(NC(=O)Cc3ccccc3)sc3c2CCCC3)cc1`, active: 28%. Under `CN(C)c1ccc(-c2nnc3n(Cc4ccccc4)c(=O)c4ccccc4n23)cc1` stands inactive: 76%; under `CC(=O)c1ccc(Nc2ccc3cc(S(=O)(=O)N4CCCC4)ccc3n2)cc1`, inactive: 84%; under `O=C(CCn1cnnn1)Nc1cc(C(F)(F)F)cc(C(F)(F)F)c1`, active: 69%. For `CC(C)Oc1cccc(C2CC(=O)Nc3cc4c(cc32)OCO4)c1` (stereo not given), the survival was inactive: 67%. Then `COc1ccc2c(c1)c1c(c(=O)n(-c3ccc(OC)c(OC)c3)c(=O)n1Cc1ccccc1F)n2C`, with inactive: 91%; and `CCS(=O)(=O)C(=C1NCCO1)S(=O)(=O)CC`, with inactive: 89%. Then `COc1cc(NC(=O)CSc2nccn2C)cc(OC)c1OC`, with inactive: 71%; and `CC(C)CCn1nnc2sc(-c3ccccc3)cc2c1=O`, with inactive: 57%. Turning to `O=C(NCCS(=O)(=O)N1CCN(c2ccc(F)cc2)CC1)c1cccc(C(F)(F)F)c1`, the survival was inactive: 90%.

The values are drawn from PubChem BioAssay AID463173 (ICCB-Longwood Screening Facility, Harvard Medical School, 2010).
